PMC8144621, “A two-hybrid system reveals previously uncharacterized protein–protein interactions within the Helicobacter pylori NIF iron–sulfur maturation system” (Scientific Reports, 2021)
Results are given in words; binding and its absence hold for the method and conditions named. Some entries that bind do so weakly or less than the wild type. Tags and fused reporters may be left off the sequences shown. Each block holds one binder with its values, some of them ahead of it.

How the values were obtained:
[1] = biological target: T1, FdxA (HP0277), BACTH fusion (Helicobacter pylori strain 26695) (UniProt O25054); assay: two-hybrid; BACTH in E. coli BTH101 (cya); T25 fusion (pKT25 or pKNT25) with T18 fusion (pUT18C); screening on LB-X-Gal plates with 0.5 mM IPTG, 0.1 mM FeCl3, 0.5 mM L-cysteine; 30 °C, 36-48 h, aerobic; positive clones turn blue
T1 sequence: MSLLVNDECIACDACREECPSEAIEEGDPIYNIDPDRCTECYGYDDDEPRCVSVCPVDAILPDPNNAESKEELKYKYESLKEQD

[2] = biological target: T1, FdxA (HP0277), BACTH fusion (Helicobacter pylori strain 26695); assay: two-hybrid; BACTH (bacterial adenylate cyclase two-hybrid) in E. coli BTH101 (cya); T25 fusion (pKT25 or pKNT25) with T18 fusion (pUT18C); screening on MacConkey-maltose (MC-Mal) plates with 0.5 mM IPTG, 0.1 mM FeCl3, 0.5 mM L-cysteine; 30 °C, 36-48 h, aerobic; positive clones turn red
[3] = biological target: T1, FdxA (HP0277), BACTH fusion (Helicobacter pylori strain 26695); assay: two-hybrid; BACTH in E. coli BTH101 (cya); T25 fusion with T18 fusion; selection by growth in Fe-enriched M63-maltose liquid minimal medium, 30 °C, 72 h, aerobic; OD595 ≤ 0.05 no detectable interaction, 0.05-0.1 weak, 0.1-0.2 intermediate, ≥ 0.2 strong
[4] = biological target: T2, ApbC (HP0207), BACTH fusion (Helicobacter pylori strain 26695) (UniProt O24999); assay: two-hybrid; BACTH in E. coli BTH101 (cya); T25 fusion (pKT25 or pKNT25) with T18 fusion (pUT18C); screening on LB-X-Gal plates with 0.5 mM IPTG, 0.1 mM FeCl3, 0.5 mM L-cysteine; 30 °C, 36-48 h, aerobic; positive clones turn blue
T2 sequence: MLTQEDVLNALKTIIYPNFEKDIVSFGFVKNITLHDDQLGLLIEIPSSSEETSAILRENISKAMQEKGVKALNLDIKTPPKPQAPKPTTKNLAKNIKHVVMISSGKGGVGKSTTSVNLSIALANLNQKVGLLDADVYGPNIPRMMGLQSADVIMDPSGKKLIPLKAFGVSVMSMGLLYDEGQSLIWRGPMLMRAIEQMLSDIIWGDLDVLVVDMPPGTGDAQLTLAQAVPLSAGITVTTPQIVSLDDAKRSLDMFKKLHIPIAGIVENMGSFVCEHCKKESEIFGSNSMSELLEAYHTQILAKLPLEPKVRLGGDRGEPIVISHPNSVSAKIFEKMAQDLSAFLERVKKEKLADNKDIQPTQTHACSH

[5] = biological target: T2, ApbC (HP0207), BACTH fusion (Helicobacter pylori strain 26695); assay: two-hybrid; BACTH (bacterial adenylate cyclase two-hybrid) in E. coli BTH101 (cya); T25 fusion (pKT25 or pKNT25) with T18 fusion (pUT18C); screening on MacConkey-maltose (MC-Mal) plates with 0.5 mM IPTG, 0.1 mM FeCl3, 0.5 mM L-cysteine; 30 °C, 36-48 h, aerobic; positive clones turn red
[6] = biological target: T2, ApbC (HP0207), BACTH fusion (Helicobacter pylori strain 26695); assay: two-hybrid; BACTH in E. coli BTH101 (cya); T25 fusion with T18 fusion; selection by growth in Fe-enriched M63-maltose liquid minimal medium, 30 °C, 72 h, aerobic; OD595 ≤ 0.05 no detectable interaction, 0.05-0.1 weak, 0.1-0.2 intermediate, ≥ 0.2 strong

binding [1]: no binding | binding [2]: no binding | binding [3]: no binding
B1: NifU (HP0221), T18 fusion (protein, UniProt O25009 1-326)
chain: MAKHDLVGSVLWDAYSKEVQRRMDNPTHLGVITEEQAKAKNAKLIVADYGAEACGDAVRLYWLVDESTDRIVDAKFKSFGCGTAIASSDMMVELCLNKRVQDAVKITNLDVERGLRDDPDTPAVPGQKMHCSVMAYDVIKKAAGMYLGKNAEDFEEEIIVCECARVSLGTIKEVIKLNDLKSVEEITNYTKAGAFCKSCVRPGGHEKRDYYLVDILKEVREEMEAEKLKATANKSQSGELAFREMTMVQKIKAVDKVIDENIRPMLMMDGGDLEILDIKESDDYIDVYIRYMGACDGCMSATTGTLFAIENALQELLDRSIRVLPI

binding [4]: binds | binding [5]: binds
B2: aconitase (HP0779), T18 fusion (enzyme, UniProt P56418 1-852)
chain: MKDFLEDYKKSVSERGSEGIPPLPLNAKQVQAVVEILTKDPTNAAFAKELLIHRVSPGVDEGAKVKAEFLAKLSQKKLECVHISALEATTLLGTMLGGYNVEPLIMGLESQDKNIAKESAKALKTTLLVYGSFDKIAAMSKTNALAKEVLESWANAEWFLNKEPLNECIEACVFKIDGETNTDDLSPASDAFTRSDIPLHAKAMLKNRIENYEQRIKAIKTKGVPVAYVGDVVGTGSSRKSATNSIMWHFGKDIPFVPNKRSGGIVIGGVIAPIFFATCEDSGALPIVADVKDLKEGDLIKIYPYKGEITLNDKVVSTFKLEPETLLDEVRASGRIPLIIGRGLTNKARKFLGLGESEAFKKPSAPKSDAKGYTLAQKIVGHACGVKGILPGTYCEPKVTTVGSQDTTGAMTRDEVKELASLKFDAPFVLQSFCHTAAYPKPSDVSLHATLPGFITQRGGVALHPGDGVIHTWLNRMGLPDTLGTGGDSHTRFPLGISFPAGSGLVAFAAVTGTMPLNMPESVLVRFKGEMNPGITLRDLVNAIPYYAIKKGLLTVEKKGKINVFNGRILEIEGLPDIKMEQAFELSDASAERSAAACVVRLNKEPMIEYLKSNIKLIDEMIASGYEDKETLKKRRDAMQAWVDNPVLLEPDSNAQYAAVIEIDVAEITEPILACPNDPDDVATLSEVLADTTGKRPHAIDEVFIGSCMTNIGHFRAFGEIVKNAPPSQARLWVVPPSKMDEQELINEGYYAIFGAAGARTEVPGCSLCMGNQARVRDNAVVFSTSTRNFDNRMGRGAKVYLGSAELGAACALLGRIPTKEEYMNLVSEKLESQKDKIYRYMNFNLMENFRL

binding [4]: binds | binding [5]: binds
B3: fumarate reductase subunit FrdB (HP0191), T18 fusion (protein, UniProt O06914 1-245)
chain: MSDNERTIVVRVLKFDPQSAVSKPHFKEYQLKETPSMTLFIALNLIREHQDPDLSFDFVCRAGICGSCAMMVNGRPRLACKTLTSSFESGVITLMPMPSFTLIKDLSVNTGDWFLDMTKRVESWAHSKEEVDITRPEKRVEPDEAQEVFELDRCIECGCCIASCGTKLMRPNFIGAAGMNRAMRFMIDSHDERNDDDFYELVGDDDGVFGCMSLIACHDTCPKELPLQSSIATLRNRMLKVGKSR

binding [4]: binds | binding [5]: binds
B7: Nqo9 (HP1268), T18 fusion (protein, UniProt O25858 1-220)
chain: MAKQEYKQLPKRAEVHSATEQFKDTVKTSLGLDLFKGLGLTIKEFFSPSVTIHYPMEQLPLSPRYRAVHNLQRLLDSGSERCIGCGLCEKICTSNCIRIITHKGEDNRKKIDSYTINLGRCIYCGLCAEVCPELAIVMGNRFENASTQRSQYGSKSEFLTSEQDAKNCSHAEFLGFGAVSPNYNERMQATPLDYVQEPSKEESQEETPTNPESNKGDENV

Further lines, the binder ahead of its results:

B4: ApbC (HP0207), BACTH fusion (protein, UniProt O24999 1-368)
chain: T2 sequence
binding [4]: binds | binding [1]: binds | binding [5]: binds | binding [2]: binds | binding [6]: binds | binding [3]: binds

B5: Nfu (HP1492), T18 fusion (protein, UniProt O26025 1-89)
chain: MIEFSDEDLQKPVRIVIEKIRPYLLKDGGNIEVLGVKSMKIYVALEGACKTCSSSKITLKNVIERQLKMDIHPNLEVVCLENAKEFDKL
binding [4]: binds | binding [5]: binds | binding [6]: binds

B6: FdxA (HP0277), BACTH fusion (protein, UniProt O25054 1-84)
chain: T1 sequence
binding [4]: binds | binding [1]: binds | binding [5]: binds | binding [2]: binds | binding [6]: binds | binding [3]: binds
